The campaign covered roughly 390,000 compounds. About 930 (0.24%) were called active. The shares of active, inactive and inconclusive entries below differ from those in the screen. Calls come from the whole dose curve; as a rule, active = well fitted activation curve with a large enough effect; inconclusive = small, poorly fitted or top-dose-only effect; inactive = no such curve, though single readings can be large or run the other way. Potencies beside an inconclusive call are fits to weak or partial responses and may not hold up.
Test: qHTS for Suppressors of FUS Proteinopathy: Primary screen using FUS-linked yeast assay; note: nearly all actives have a fitted effect of over 55% in size;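 for growth rescue (activation): plate controls were DMSO vehicle for no effect and reference control for full effect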
Conditions: S. cerevisiae FUS-expressing, OD600, 24 h; Potency: growth rescue; growth rescue (activation): at 76.6 µM (top of the series)
Procedure, shortened: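 Yeast FUS proteinopathy model; galactose-induced FUS (2%), starting OD 0.005. Cpds in dilution series, 24hr, 30C, 99% humidity. Abs 600 nm growth. Pos ctrl CP55940 (top 92uM final); neg ctrl DMSO.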
With Cc1ccc(NC(=O)C(C)Sc2nc(=O)cc(N)n2-c2cccc(C)c2)cc1 (centres undefined) the Potency was inconclusive: 20 µM [activator, partial curve, poor fit]. In the case of O=C(c1cc(COc2ccc(F)cc2Cl)on1)N1CCCC(c2ccccc2)C1 (centres undefined), the Potency was inconclusive: 25.1 µM [activator, single point]. In the case of Cc1ccc(Nc2cc(C(=O)NCCCN3CCOCC3)c3ccccc3n2)c(C)c1, the Potency was “inactive”. With COc1ccc(Br)cc1C(C[N+](=O)[O-])c1c(N)n(C)c(=O)n(C)c1=O (centres undefined) the Potency was inconclusive: 50.1 µM [activator, single point]. For Cc1cccc(C)c1NC(=O)C1C(c2ccc3c(c2)OCO3)=Nc2ccccc2N1C(=O)c1ccccn1 (centres undefined), the Potency was inconclusive: 35.5 µM [activator, single point]. With CC1CCc2nn(CC(=O)Nc3ccccc3Cl)cc2C1 (centres undefined) the Potency was “inactive”. For CNC(=O)CSc1nc(-c2ccccc2)c(-c2ccccc2)[nH]1, the Potency was inconclusive: 44.7 µM [activator, single point]. For CC12CCC(=O)N1C(C(=O)NNC(=O)c1ccccc1F)CS2 (centres undefined), the growth rescue (activation) was inconclusive: -57.5% [activator]. In the case of CCCn1c(SCc2nc(-c3ccc(OC)c(OC)c3)no2)nnc1-c1ccccc1, the Potency was inconclusive: 12.6 µM [activator, partial curve, poor fit]. For COc1ccc(-c2ccc(C(=O)Nc3cc(OC)c(OC)c(OC)c3)c3occc23)c(C)c1, the Potency was inconclusive: 39.8 µM [activator, single point]. In the case of Cc1ccc(NC(=O)c2cnn3c(C(F)F)cc(-c4ccccc4)nc23)cc1F, the Potency was “inactive”. With Cc1ccc(S(=O)(=O)N2CCCCC2)cc1C(=O)OC(C)C(=O)NCC1CCCCC1 (centres undefined) the Potency was “inactive”. With Cc1cc[n+](CC(=O)c2ccc(NC(=O)c3ccccc3)cc2)c2ccccc12 the Potency was “inactive”. With CN(c1ccc(C(=O)NCCSC(C)(C)C)cc1)S(C)(=O)=O the Potency was “inactive”. For CC(NC(=O)Cn1c(=O)[nH]c2ccsc2c1=O)C12CC3CC(CC(C3)C1)C2 (centres undefined), the Potency was inconclusive: 22.4 µM [activator, partial curve, poor fit]. For Cc1cccc(OCc2nnc(SCC(=O)N(C(C)C)C(C)C)n2Cc2ccco2)c1C, the Potency was inconclusive: 22.4 µM [activator, single point]. In the case of O=C(NCc1cccc(Cl)c1)c1ccc(NC(=O)N2CC3CCCN3c3ccccc32)cc1 (centres undefined), the Potency was inconclusive: 39.8 µM [activator, single point]. With COc1ccc(C2CC(c3ccccc3)Nc3nc(NC(=O)c4cccs4)nn32)cc1 (centres undefined) the Potency was inconclusive: 28.2 µM [activator, single point]. With O=C(Nc1cccc(C(F)(F)F)c1)C1Cc2c(-c3ccco3)ccnc2O1 (centres undefined) the Potency was “inactive”. In the case of Cc1ccc(CNC(=O)C2CCN(S(=O)(=O)c3c(C)noc3/C=C/c3cccs3)CC2)cc1, the Potency was “inactive”. In the case of Cc1cccc(OCc2nc(-c3ccccn3)n[nH]2)c1, the Potency was “inactive”. With CCOc1ccc(NC(=O)CN(c2ccc(CC)cc2)S(=O)(=O)c2c(C)noc2C)cc1 the Potency was “inactive”. For CCc1cc(C(=O)NNC(=S)Nc2cccc(C)c2)cs1, the Potency was “inactive”. With COc1cccc(OC)c1C(=O)Nc1cccc(-c2ccc(N3CCOCC3)nn2)c1 the Potency was inconclusive: 31.6 µM [activator, single point]. In the case of COc1ccc(CNC(=O)OC23CN(C(=O)OC(C)C)N(C(=O)OC(C)C)CC2(O)CN(S(=O)(=O)c2ccc(C)cc2)C3)cc1OC (centres undefined), the Potency was inconclusive: 28.2 µM [activator, single point]. For CCCCn1c(N)c(N(CC(C)C)C(=O)C(C)SCc2nc3sc(C)c(C)c3c(=O)[nH]2)c(=O)[nH]c1=O (centres undefined), the Potency was inconclusive: 25.1 µM [activator, single point]. In the case of CCOC(=O)C(c1ccccc1)N1CCN(c2ccc(OC)cc2)CC1 (centres undefined), the Potency was “inactive”. With CCc1cc(=O)oc2c3c(cc(OCC(=O)NCc4ccccn4)c12)OC(C)(C)CC3 the Potency was inconclusive: 15.8 µM [activator, partial curve, poor fit]. For C=CCCC(=O)N1CCC(C(=O)NCC2COc3ccccc3O2)CC1 (centres undefined), the Potency was “inactive”. For COc1cc2c(cc1OC)CN(CC(=O)Nc1cccc([N+](=O)[O-])c1)CC2, the Potency was inconclusive: 31.6 µM [activator, single point]. In the case of CCN1C(=O)c2ccccc2S(=O)c2ccc(C(=O)N3CCN(c4cccc(C)c4)C(C)C3)cc21 (centres undefined), the Potency was inconclusive: 22.4 µM [activator, partial curve]. In the case of Cc1cccc(CNC(=O)CSCc2cnn(-c3ccccc3)c2-n2cccc2)c1, the Potency was inconclusive: 22.4 µM [activator, partial curve, poor fit]. In the case of Cn1c(=O)c2cc(NC(=S)NC3CCCCC3)ccc2n1C/C=C/c1ccccc1, the Potency was inconclusive: 20 µM [activator, partial curve, poor fit]. In the case of COc1ccccc1NC(=O)CSc1nc2ccccc2c2nc(-c3ccccc3)nn12, the Potency was “inactive”. With NC(Cc1ccc(C(F)(F)F)cc1)c1csc(Nc2nncc3ccccc23)n1 (centres undefined) the Potency was inconclusive: 50.1 µM [activator, single point]. For CC(C)Cn1cnc2c1c(=O)n(CC(=O)NN)c(=O)n2Cc1ccccc1, the Potency was inconclusive: 8.91 µM [activator, partial curve, poor fit]. In the case of CC(C)COc1ccc(CNC(=S)Nc2ccccc2)cc1Cl, the Potency was “inactive”. With Cc1ccc(C)c(NC(=O)CSc2c3c(nc4ccc(Cl)cc24)CCCC3)c1 the Potency was “inactive”. With COc1ccc(OC)c(S(=O)(=O)NCc2cccn2Cc2cccc(C)c2)c1 the Potency was inconclusive: 44.7 µM [activator, single point]. With CCOc1ccc(NC(=O)c2ccc3c(c2)N(C)CCS3)cc1 the Potency was inconclusive: 25.1 µM [activator, single point]. In the case of Cc1ccc(Cl)cc1Nc1nc(-c2sc(NC(=O)c3ccco3)nc2C)cs1, the Potency was inconclusive: 31.6 µM [activator, single point]. For COc1ccc(NC(=O)c2cccn2-c2nnc(N3CCCCC3)s2)cc1Cl, the Potency was inconclusive: 39.8 µM [activator, single point]. In the case of Cc1ccc(/C=N/NC(=O)Cc2cccn2C)s1, the Potency was inconclusive: 31.6 µM [activator, single point]. For COc1ccccc1NC(=O)CN1CCCN(S(=O)(=O)c2ccc(Br)cc2)CC1, the Potency was inconclusive: 50.1 µM [activator, single point]. For Cc1ccc(C)c(CC(=O)N2CCCC(c3cc(C(=O)Nc4ccc5c(c4)OCO5)no3)C2)c1 (centres undefined), the Potency was inconclusive: 20 µM [activator, partial curve, poor fit]. For CCCCN=c1scc(-c2ccc3c(c2)NC(=O)CO3)n1N=C1CCCC1, the Potency was inconclusive: 25.1 µM [activator, partial curve, poor fit]. For Oc1cccc(-c2nc3ccc4ccccc4c3c3c2CCC3)c1, the Potency was inconclusive: 39.8 µM [activator, single point]. For Cc1cc(C)c(C)c(S(=O)(=O)N2CCC(C(=O)NCc3cccs3)CC2)c1C, the Potency was inconclusive: 50.1 µM [activator, single point]. For O=C(Nc1ccccc1F)Oc1cccc(OC(=O)Nc2ccccc2F)c1, the Potency was “inactive”. With Cc1ccc(NC(=O)CN2C(=O)S/C(=C/c3ccncc3)C2=O)cc1 the Potency was “inactive”. With CCOC(=O)[C@]12CCC=C1N(Cc1ccc(Cl)cc1Cl)C(=O)[C@H](CC(=O)N1CCC(c3ccccc3)CC1)C2 the Potency was inconclusive: 31.6 µM [activator, single point]. With COc1ccc(NC(=O)CC2C(=O)N(c3ccc(F)cc3)C(=O)N2Cc2ccco2)cc1 (centres undefined) the Potency was “inactive”. With Cc1ccc(N2C(=O)CCSC23C(=O)N(Cc2ccccc2)c2ccccc23)cc1F (centres undefined) the Potency was inconclusive: 35.5 µM [activator, single point]. With CCOC(=O)CNC(=O)CSc1nc2nc(C)c(Br)cc2[nH]1 the Potency was inconclusive: 3.98 µM [activator, single point]. For S=C(NCCc1ccccc1)NC1CCC(NC(=S)NCCc2ccccc2)CC1 (centres undefined), the Potency was “inactive”. For CCOc1ccccc1NC(=O)CN1C(=O)CC(c2ccc(OC)c(OC)c2)Sc2ccccc21 (centres undefined), the Potency was inconclusive: 7.08 µM [activator, partial curve, poor fit]. In the case of O=C(c1ccc(N2CCCC2=O)cc1)N1CCN(c2ccc(C(F)(F)F)cc2[N+](=O)[O-])CC1, the Potency was inconclusive: 10 µM [activator, partial curve]. In the case of CCOc1ccc(C(Nc2ccc(C)cc2)P2(=O)OCC(C)(C)CO2)cc1 (centres undefined), the Potency was inconclusive: 31.6 µM [activator, partial curve, poor fit]. For COc1ccc(S(=O)(=O)N2CCCCCC2)cc1NC(=O)Cc1ccccc1F, the Potency was inconclusive: 25.1 µM [activator, partial curve, poor fit]. In the case of CCCCC[C@@H](C)N1C[C@@H](COCc2ccccc2)Oc2cc(N3CCC[C@@H]3CO)ccc2S1(=O)=O, the Potency was inconclusive: 11.2 µM [activator, full curve]. In the case of OCCOCCn1c(C2CCCN2c2nc(-c3ccc(F)cc3)cs2)nc2cc(C(F)(F)F)ccc21 (centres undefined), the Potency was inconclusive: 35.5 µM [activator, single point]. For CC(=O)Nc1cccc(Oc2nc(NC(C)C)nc3cc(-c4ccccc4)sc23)c1, the Potency was inconclusive: 28.2 µM [activator, single point]. For CCCOC(=O)c1ccc(Oc2c(-c3ccc(O)cc3O)n[nH]c2C)cc1, the Potency was inconclusive: 35.5 µM [activator, partial curve, poor fit]. For C=CCc1cccc(/C=N/NC(=O)CCC(=O)Nc2ccc(F)cc2)c1O, the Potency was inconclusive: 50.1 µM [activator, single point].
Potency is the fitted concentration of half-maximal effect; tags give direction and shape of the fitted curve.
